# The list shows a part of the results. The energies were worked out here from pooled read counts, against the library average; single values are noisy.
# Target: T1, Pho4 (S. cerevisiae) (UniProt P07270)
# T1 sequence: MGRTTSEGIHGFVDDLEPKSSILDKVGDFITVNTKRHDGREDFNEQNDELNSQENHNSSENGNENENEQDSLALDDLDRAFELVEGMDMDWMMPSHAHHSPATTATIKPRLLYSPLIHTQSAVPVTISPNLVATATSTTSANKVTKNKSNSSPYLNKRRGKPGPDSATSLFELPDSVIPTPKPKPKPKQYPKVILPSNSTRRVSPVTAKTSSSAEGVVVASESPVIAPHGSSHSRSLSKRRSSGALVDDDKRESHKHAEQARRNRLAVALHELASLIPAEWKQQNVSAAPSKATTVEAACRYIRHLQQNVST
# Test: relative binding free energy (BET-seq); higher = weaker binding
# Conditions: reference: library average
row,Sequence,relative binding free energy [kcal/mol]
1,GGGTACACGTGTGCTT,0.26
2,CTGTACACGTGTTGGT,0.11
3,ATTGGCACGTGTAACG,-0.08
4,GTAGTCACGTGCTGGA,0.1
5,AGTAACACGTGACGGT,0.12
6,GTGCCCACGTGGGGAT,-0.12
7,TTTGCCACGTGTGCGT,-0.18
8,AAGTACACGTGGTAAG,0.01
9,AGATTCACGTGAGGTG,0.36
10,TTTGGCACGTGCGAGT,-0.07
11,GTGGGCACGTGTATTA,0.01
12,TAAGGCACGTGAAAGG,0.16
13,GTGTCCACGTGTGGTG,0.07
14,ATCGCCACGTGTTGGG,-0.06
15,GGTCACACGTGATGGA,0.25
16,ATGCACACGTGTCGGT,0.13
17,AGATACACGTGTTGTG,0.07
18,GGTTGCACGTGGTCAT,-0.02
19,TGAGGCACGTGGGTTA,-0.14
20,CACGGCACGTGGGGTT,-0.26
21,AGAGCCACGTGATTGG,0.14
22,GGGTTCACGTGTTGTC,0.26
23,TGTGGCACGTGCTTGG,-0.21

row,Sequence,relative binding free energy [kcal/mol]
1,GTTGTCACGTGTAGTT,0.13
2,CAAGTCACGTGGTTTA,0.09
3,ACAGTCACGTGTTTTA,0.1
4,CTTGTCACGTGAGTCT,0.31
5,ATTTACACGTGGTAAG,0.1
6,GTTCTCACGTGTTGTC,0.2
7,GGCTTCACGTGTGGGC,0.34
8,GGGGGCACGTGGGTAG,-0.15
9,CAGGTCACGTGGTGGC,0.16
10,GTGCACACGTGTAAGG,0.17
11,AGGACCACGTGGAGGT,-0.04
12,GGTAACACGTGAGTGA,-0.01
13,AGTGACACGTGGATTT,0.05
14,TGGGGCACGTGGAATG,0.03
15,GTTGTCACGTGGTCAA,0.02
16,AAATGCACGTGCGGTT,-0.13
17,TGAAGCACGTGTTGGG,0.01
18,GGTGACACGTGTGTTG,0.02
19,GTCCGCACGTGTTTGG,0.03
20,AAGGGCACGTGGGAAA,-0.06
21,AATTTCACGTGTTATA,0.19
22,TAGGGCACGTGCTGAG,-0.05
23,AGATACACGTGCTGTG,-0.01

row,Sequence,relative binding free energy [kcal/mol]
1,AGAAGCACGTGTTGTC,0.09
2,GTGGGCACGTGGTGAA,-0.04
3,AGTGTCACGTGTGGAA,0.1
4,AACATCACGTGAGGTG,0.36
5,GTATGCACGTGTGCTG,0.04
6,ACAGGCACGTGATGTG,-0.06
7,TTGTTCACGTGTGTTC,0.22
8,AAAGTCACGTGTTCGT,0.01
9,CGGGGCACGTGAGTGG,0.03
10,CGTGGCACGTGCATGG,-0.16
11,GCAGGCACGTGTCGTG,0.04
12,GGAGGCACGTGTATCG,-0.05
13,AGGAGCACGTGATGTG,0.07
14,TTAGCCACGTGTTGTG,-0.09
15,AGTGTCACGTGACTAG,0.24
16,TGTAACACGTGAGTAT,0.29
17,TGGGTCACGTGGTTAA,0.1
18,TGATACACGTGTATTG,-0.04
19,GGGAACACGTGAAGGT,0.46
20,TGTTACACGTGTAAAA,0.24
21,GACAGCACGTGGGTGG,-0.19
22,GGGAGCACGTGCGTGG,-0.07
23,ACAGGCACGTGGGAGG,-0.21

row,Sequence,relative binding free energy [kcal/mol]
1,AGAGTCACGTGTAAAG,0.27
2,TAATGCACGTGGGGGT,-0.19
3,ACAGTCACGTGGGGCG,-0.13
4,TGGCGCACGTGAGTAG,0
5,TCGAACACGTGGGTTG,-0.15
6,ATTGACACGTGGTAGA,0.04
7,GAGGACACGTGTTTTA,0.2
8,ATTTTCACGTGTTCCG,0.31
9,AGTTTCACGTGTCAGT,0.28
10,GTGTTCACGTGTGAGA,0.38
11,ATAAGCACGTGGCTGT,-0.14
12,CTATGCACGTGTTAGG,0.01
13,AGGGTCACGTGGGTCT,0.07
14,GTTGTCACGTGATTTA,0.35
15,AAAAGCACGTGTTAGG,-0.01
16,ATATGCACGTGTGTGA,-0.06
17,AGTAACACGTGATTTT,0.11
18,TGAGGCACGTGACGAG,-0.1
19,TGTAGCACGTGCTGGC,-0.23
20,ATGGGCACGTGACTAG,-0.08
21,GGTTCCACGTGTAATG,0.21
22,GTATTCACGTGGGCGC,0.27
23,GGCGGCACGTGGCAAG,-0.14

row,Sequence,relative binding free energy [kcal/mol]
1,ATGTTCACGTGTGGGT,0.23
2,ACGGACACGTGTTTGT,0
3,AGCAGCACGTGTGAGT,0.07
4,GATTACACGTGGAGTG,0.1
5,CGGTTCACGTGAAGTA,0.37
6,TTTCGCACGTGTTGTG,-0.06
7,GTATACACGTGGTATT,0.04
8,ATTTCCACGTGGAGGG,0
9,AGTGACACGTGAGCTT,0.19
10,GGTACCACGTGGTTGA,-0.15
11,AGTCTCACGTGTGCGT,0.1
12,GTTTGCACGTGGCACT,0.14
13,TATGACACGTGGAGGG,-0.01
14,GTGAGCACGTGGTGGT,-0.08
15,CTTGGCACGTGATGAG,0.02
16,GGAGGCACGTGTCGGC,-0.13
17,TTTATCACGTGGGTAT,0.05
18,GTTGTCACGTGATATA,0.19
19,TATTACACGTGGAGTT,0.11
20,TGTAGCACGTGATTAT,0.09
21,TAAATCACGTGGGGTA,-0.05
22,TTTTTCACGTGGCAGA,0.26
23,TGCGACACGTGTGGGG,0.15

# From the BET-seq Pho4 binding data (Le et al. 2018)
